Results on four molecules are retold here after article PMC5239548.

Amino acid sequences for entries named in this document (tags omitted). A change or cut given only in a name is not applied to a line headed by its entry.
UniProt Q8NEB9: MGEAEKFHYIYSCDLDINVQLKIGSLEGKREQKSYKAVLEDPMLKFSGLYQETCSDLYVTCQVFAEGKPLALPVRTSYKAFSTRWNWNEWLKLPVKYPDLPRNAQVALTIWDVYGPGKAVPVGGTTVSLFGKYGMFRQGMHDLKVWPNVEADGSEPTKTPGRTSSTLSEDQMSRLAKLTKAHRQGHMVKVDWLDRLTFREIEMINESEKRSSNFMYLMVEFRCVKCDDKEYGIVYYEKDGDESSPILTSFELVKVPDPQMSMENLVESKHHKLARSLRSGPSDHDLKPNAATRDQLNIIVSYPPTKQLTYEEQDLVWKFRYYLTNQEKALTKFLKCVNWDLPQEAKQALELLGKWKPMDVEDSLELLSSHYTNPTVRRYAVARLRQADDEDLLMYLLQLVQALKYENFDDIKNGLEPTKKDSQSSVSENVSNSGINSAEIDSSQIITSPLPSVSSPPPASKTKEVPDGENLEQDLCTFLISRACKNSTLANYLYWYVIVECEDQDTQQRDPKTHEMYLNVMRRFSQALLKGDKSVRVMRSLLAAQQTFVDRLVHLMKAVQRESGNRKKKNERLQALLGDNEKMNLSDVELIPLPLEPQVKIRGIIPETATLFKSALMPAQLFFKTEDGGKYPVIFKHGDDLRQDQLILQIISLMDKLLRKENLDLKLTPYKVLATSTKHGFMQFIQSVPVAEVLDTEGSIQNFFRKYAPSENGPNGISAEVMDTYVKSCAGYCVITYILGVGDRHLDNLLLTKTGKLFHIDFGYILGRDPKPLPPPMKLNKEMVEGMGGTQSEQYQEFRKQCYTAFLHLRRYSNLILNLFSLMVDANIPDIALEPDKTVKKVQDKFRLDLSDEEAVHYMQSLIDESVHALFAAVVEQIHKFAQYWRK
UniProt Q6PF93: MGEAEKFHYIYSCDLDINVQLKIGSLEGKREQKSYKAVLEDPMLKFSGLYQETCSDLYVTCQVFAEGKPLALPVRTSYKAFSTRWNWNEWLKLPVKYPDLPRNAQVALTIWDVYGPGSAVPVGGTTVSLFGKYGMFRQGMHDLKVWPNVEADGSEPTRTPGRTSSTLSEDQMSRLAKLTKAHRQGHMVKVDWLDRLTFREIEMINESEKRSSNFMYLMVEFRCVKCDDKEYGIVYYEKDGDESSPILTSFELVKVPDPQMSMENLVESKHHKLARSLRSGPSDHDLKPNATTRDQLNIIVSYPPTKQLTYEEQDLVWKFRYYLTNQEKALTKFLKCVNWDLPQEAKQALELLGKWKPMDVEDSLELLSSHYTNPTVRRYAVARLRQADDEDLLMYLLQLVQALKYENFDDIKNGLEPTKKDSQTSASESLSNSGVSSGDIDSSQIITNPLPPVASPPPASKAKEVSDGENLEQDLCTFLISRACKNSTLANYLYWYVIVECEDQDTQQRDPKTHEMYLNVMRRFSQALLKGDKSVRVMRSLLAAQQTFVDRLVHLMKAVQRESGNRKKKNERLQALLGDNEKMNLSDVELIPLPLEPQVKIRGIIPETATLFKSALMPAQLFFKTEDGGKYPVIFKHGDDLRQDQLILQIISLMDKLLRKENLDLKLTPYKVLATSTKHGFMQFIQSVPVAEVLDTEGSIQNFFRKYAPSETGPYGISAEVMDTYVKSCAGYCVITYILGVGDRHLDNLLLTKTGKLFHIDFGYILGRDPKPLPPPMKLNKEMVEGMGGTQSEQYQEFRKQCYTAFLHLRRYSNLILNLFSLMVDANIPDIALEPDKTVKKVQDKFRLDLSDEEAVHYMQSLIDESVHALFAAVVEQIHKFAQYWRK
UniProt Q61037: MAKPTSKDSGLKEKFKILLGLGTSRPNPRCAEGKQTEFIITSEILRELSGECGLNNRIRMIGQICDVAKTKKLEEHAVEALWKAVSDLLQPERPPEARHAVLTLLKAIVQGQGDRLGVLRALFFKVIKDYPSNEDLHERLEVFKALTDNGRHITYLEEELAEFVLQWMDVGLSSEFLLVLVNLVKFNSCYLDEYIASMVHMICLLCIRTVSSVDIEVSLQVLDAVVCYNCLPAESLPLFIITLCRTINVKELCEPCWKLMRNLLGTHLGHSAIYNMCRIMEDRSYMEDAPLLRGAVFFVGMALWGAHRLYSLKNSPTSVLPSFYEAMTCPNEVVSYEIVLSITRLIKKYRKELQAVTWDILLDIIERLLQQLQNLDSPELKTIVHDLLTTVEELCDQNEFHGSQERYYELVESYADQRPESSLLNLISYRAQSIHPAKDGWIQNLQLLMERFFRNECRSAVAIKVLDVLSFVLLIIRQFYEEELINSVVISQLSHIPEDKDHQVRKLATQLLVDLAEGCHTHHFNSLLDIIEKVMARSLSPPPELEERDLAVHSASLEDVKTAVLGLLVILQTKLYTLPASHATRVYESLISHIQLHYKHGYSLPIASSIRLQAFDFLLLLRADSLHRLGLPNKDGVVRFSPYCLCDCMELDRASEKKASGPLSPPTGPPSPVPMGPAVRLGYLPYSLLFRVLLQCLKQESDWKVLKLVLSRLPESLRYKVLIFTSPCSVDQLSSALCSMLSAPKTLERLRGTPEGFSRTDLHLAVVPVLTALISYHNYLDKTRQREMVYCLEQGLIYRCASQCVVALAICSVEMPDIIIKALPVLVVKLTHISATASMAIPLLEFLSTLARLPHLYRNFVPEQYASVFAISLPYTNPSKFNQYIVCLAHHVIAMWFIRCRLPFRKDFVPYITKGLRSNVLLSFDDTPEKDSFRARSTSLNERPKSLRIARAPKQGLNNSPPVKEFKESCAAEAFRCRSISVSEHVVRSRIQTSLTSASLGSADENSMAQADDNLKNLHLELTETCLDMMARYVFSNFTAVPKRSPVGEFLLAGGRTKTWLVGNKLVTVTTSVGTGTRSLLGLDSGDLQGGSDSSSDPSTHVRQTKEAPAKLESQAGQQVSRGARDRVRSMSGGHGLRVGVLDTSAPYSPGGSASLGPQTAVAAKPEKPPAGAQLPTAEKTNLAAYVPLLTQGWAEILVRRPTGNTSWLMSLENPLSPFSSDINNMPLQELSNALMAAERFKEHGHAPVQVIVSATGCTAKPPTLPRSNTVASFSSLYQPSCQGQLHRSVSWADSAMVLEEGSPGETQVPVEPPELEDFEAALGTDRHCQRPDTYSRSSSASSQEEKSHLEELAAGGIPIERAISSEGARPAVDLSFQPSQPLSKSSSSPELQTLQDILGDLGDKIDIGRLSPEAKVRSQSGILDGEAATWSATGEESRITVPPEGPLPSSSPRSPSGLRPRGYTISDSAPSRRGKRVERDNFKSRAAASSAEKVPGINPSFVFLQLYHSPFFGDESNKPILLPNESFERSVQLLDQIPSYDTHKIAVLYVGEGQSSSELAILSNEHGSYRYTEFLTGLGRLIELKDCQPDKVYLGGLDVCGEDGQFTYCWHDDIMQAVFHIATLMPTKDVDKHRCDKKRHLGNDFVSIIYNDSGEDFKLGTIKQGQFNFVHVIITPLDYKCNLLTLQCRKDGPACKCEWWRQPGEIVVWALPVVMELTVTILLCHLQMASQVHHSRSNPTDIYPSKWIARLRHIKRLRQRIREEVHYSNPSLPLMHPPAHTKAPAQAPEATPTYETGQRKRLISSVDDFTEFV
UniProt Q9Z1T6: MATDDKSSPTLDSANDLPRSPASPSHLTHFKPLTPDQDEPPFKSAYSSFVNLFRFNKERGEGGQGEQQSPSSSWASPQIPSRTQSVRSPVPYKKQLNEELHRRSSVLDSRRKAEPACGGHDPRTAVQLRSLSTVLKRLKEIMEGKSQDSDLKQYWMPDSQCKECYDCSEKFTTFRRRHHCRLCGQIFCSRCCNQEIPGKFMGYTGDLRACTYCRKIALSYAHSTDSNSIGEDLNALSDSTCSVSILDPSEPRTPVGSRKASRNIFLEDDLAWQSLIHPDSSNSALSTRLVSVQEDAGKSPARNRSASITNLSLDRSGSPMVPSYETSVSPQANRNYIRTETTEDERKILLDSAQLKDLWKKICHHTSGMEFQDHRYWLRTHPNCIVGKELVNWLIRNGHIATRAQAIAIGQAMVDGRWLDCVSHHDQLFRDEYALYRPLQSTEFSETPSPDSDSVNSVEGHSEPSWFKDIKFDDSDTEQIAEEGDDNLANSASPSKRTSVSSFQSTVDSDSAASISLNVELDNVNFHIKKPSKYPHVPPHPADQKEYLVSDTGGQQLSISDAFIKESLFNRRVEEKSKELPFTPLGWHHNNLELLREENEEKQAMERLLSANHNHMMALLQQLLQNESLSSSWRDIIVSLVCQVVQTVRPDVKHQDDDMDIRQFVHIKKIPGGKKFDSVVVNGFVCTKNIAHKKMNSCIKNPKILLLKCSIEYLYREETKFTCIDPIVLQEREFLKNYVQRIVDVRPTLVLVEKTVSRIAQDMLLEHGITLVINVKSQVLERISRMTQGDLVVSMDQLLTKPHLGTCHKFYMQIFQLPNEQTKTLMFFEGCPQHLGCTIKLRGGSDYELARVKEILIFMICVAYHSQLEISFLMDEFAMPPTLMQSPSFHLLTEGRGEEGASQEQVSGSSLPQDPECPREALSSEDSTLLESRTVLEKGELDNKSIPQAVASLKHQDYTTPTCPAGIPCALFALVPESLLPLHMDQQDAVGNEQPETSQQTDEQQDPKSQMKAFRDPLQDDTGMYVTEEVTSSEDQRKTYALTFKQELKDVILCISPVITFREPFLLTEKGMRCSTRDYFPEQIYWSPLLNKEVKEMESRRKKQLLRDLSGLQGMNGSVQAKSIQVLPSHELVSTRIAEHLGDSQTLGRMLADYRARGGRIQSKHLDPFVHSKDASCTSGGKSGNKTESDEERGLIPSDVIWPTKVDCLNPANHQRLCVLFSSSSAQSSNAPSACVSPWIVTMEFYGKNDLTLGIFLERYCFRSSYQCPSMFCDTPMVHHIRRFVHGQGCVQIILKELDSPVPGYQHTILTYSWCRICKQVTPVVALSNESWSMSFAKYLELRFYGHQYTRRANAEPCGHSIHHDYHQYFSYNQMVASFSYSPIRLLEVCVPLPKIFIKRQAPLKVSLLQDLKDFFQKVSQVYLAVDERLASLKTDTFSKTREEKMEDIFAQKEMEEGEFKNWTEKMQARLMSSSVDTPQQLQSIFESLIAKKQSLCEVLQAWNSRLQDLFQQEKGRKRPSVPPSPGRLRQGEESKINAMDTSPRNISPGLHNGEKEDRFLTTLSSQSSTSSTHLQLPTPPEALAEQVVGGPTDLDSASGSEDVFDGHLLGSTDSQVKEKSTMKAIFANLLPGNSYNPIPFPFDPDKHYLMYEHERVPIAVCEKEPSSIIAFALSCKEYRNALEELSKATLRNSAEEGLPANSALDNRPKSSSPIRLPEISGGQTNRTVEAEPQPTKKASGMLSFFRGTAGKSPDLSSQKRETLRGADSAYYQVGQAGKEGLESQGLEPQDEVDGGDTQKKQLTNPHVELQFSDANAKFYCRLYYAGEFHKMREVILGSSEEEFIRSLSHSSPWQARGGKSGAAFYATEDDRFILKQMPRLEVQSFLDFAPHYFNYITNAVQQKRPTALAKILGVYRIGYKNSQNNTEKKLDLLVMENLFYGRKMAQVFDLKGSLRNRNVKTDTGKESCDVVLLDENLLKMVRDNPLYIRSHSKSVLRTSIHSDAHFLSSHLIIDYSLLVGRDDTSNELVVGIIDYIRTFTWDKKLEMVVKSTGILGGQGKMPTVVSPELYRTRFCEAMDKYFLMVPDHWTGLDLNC

Assay [1] deals with Myc-VPS34-H868R (pcDNA3-Myc-VPS34-H868R), expressed in NIH3T3 cells (human) (UniProt Q8NEB9). As to the kind of experiment: co-IP; NIH3T3 cells transiently transfected with Myc-VPS34 constructs; anti-Myc immunoprecipitation; endogenous TSC1 or TSC2 detected by Western blot.
For assay [2], the target named is Myc-VPS34-WT (pcDNA3-Myc-hVPS34), expressed in NIH3T3 cells (human) (UniProt Q8NEB9). Described as above.
Assay [3] addresses endogenous VPS34 of NIH3T3 cells (mouse (endogenous in NIH3T3)) (UniProt Q6PF93). In words: co-IP; NIH3T3 WCL, endogenous proteins; immunoprecipitation with anti-VPS34 antibody (or control IgG); TSC1, TSC2, PIKFYVE detected by Western blot; also in cells transfected with PIKFYVE siRNA for 48h.
For assay [4], the target named is endogenous TSC2 of NIH3T3 cells (mouse (endogenous in NIH3T3)) (UniProt Q61037). In words: co-IP; NIH3T3 WCL, endogenous proteins; immunoprecipitation with anti-TSC2 antibody; TSC1 detected by Western blot.
Assay [5] deals with endogenous VPS34 of NIH3T3 cells (mouse (endogenous in NIH3T3)) (UniProt Q6PF93). As to the kind of experiment: co-IP; NIH3T3 WCL, endogenous proteins; immunoprecipitation with anti-VPS34 antibody (or control IgG); TSC1, TSC2, PIKFYVE detected by Western blot; also in cells transfected with PIKFYVE siRNA for 48h. The source holds these as a separate data set.
Assay [6] deals with Myc-VPS34-WT (pcDNA3-Myc-hVPS34), expressed in COS-7 cells (human) (UniProt Q8NEB9). In words: co-IP; COS-7 cells transiently co-transfected with Myc-TSC1 and Myc-VPS34 constructs; immunoprecipitation with anti-VPS34 antibody; detection with anti-Myc antibody.
Assay [7] concerns the target Myc-VPS34-H868R (pcDNA3-Myc-VPS34-H868R), expressed in COS-7 cells (human) (UniProt Q8NEB9). The description is as above.

Like-named read-outs stand apart in the source and are kept apart here. These are yes or no findings as the source states them, for the method shown. In cells and extracts the contact can be indirect. Some results given as binding are weak or reduced against the parent protein; the word gives no strength. For some of these results: Sequences can lack the tags named with a protein.

As for “endogenous TSC2 of NIH3T3 cells (from UniProt Q61037 1-1814)”, the binding entry in assay [1], in assay [2] and in assay [3] was “no binding” throughout.

In the case of “endogenous PIKFYVE of NIH3T3 cells (from UniProt Q9Z1T6 1-2097) (enzyme)”, in assay [3], the binding entry was “binds”.

B1: endogenous TSC1 of NIH3T3 cells (protein, UniProt Q9EP53 1-1161)
chain: MAQLANIGELLSMLDSSTLGVRDDVTAIFKESLNSERGPMLVNTLVDYYLETNSQPVLHILTTLQEPHDKHLLDKINEYVGKAATRLSILSLLGHVVRLQPSWKHKLSQAPLLPSLLKCLKMDTDVVVLTTGVLVLITMLPMIPQSGKQHLLDFFDIFGRLSSWCLKKPGHVTEVYLVHLHASVYALFHRLYGMYPCNFVSFLRSHYSMKENVETFEEVVKPMMEHVRIHPELVTGSKDHELDPRRWKTLETHDVVIECAKISLDPTEASYEDGYSVSHQLSACFPYRSADVTTSPYVDTQNSYGGSTSTPSSSSRLMLFSPPGQLPQSLSSPSTRLLPEPLQASLWSPSAVCGMTTPPTSPGNVPADLSHPYSKAFGTTAGGKGTPSGTPATSPPPAPPCPQDDCVHGSAAQASATAPRKEERADSSRPYLHRQSNDRGLEDPPGSKGSVTLRNLPDFLGDLASEEDSIEKDKEEAAISKELSEITTAEADPVVPRGGFDSPFYRDSLSGSQRKTHSAASGTQGSSVNPEPLHSSLDKHGPDTPKQAFTPIDPPSGSADVSPAGDRDRQTSLETSILTPSPCKIPPQRGVSFGSGQLPPYDHLFEVALPKTACHFVSKKTEELLKKVKGNPEEDCVPSTSPMEVLDRLIEQGAGAHSKELSRLSLPSKSVDWTHFGGSPPSDELRTLRDQLLLLHNQLLYERFKRQQHALRNRRLLRKVIRAAALEEHNAAMKDQLKLQEKDIQMWKVSLQKEQARYSQLQEQRDTMVTQLHSQIRQLQHDREEFYNQSQELQTKLEDCRNMIAELRVELKKANNKVCHTELLLSQVSQKLSNSESVQQQMEFLNRQLLVLGEVNELYLEQLQSKHPDTTKEVEMMKTAYRKELEKNRSHLLQQNQRLDASQRRVLELESLLAKKDHLLLEQKKYLEDVKSQASGQLLAAESRYEAQRKITRVLELEILDLYGRLEKDGRLRKLEEDRAEAAEAAEERLDCCSDGCTDSLVGHNEEASGHNGETRTSRPGGTRASCGGRVTGGSSSSSSELSTPEKPPSQRFSSRWEPALGEPSSSIPTTVGSLPSSKSFLGMKARELFRNKSESQCDEDSVTMSSSSLSETLKTELGKDSGTENKTSLSLDAPHPSSPNSDNVGQLHIMDYNETHPEHS
Regarding B1, the binding entry in assay [4], in assay [1], in assay [2] and in assay [5] was “binds” throughout.

B2: Myc-TSC1 (protein, UniProt Q92574 1-1164)
chain: MAQQANVGELLAMLDSPMLGVRDDVTAVFKENLNSDRGPMLVNTLVDYYLETSSQPALHILTTLQEPHDKHLLDRINEYVGKAATRLSILSLLGHVIRLQPSWKHKLSQAPLLPSLLKCLKMDTDVVVLTTGVLVLITMLPMIPQSGKQHLLDFFDIFGRLSSWCLKKPGHVAEVYLVHLHASVYALFHRLYGMYPCNFVSFLRSHYSMKENLETFEEVVKPMMEHVRIHPELVTGSKDHELDPRRWKRLETHDVVIECAKISLDPTEASYEDGYSVSHQISARFPHRSADVTTSPYADTQNSYGCATSTPYSTSRLMLLNMPGQLPQTLSSPSTRLITEPPQATLWSPSMVCGMTTPPTSPGNVPPDLSHPYSKVFGTTAGGKGTPLGTPATSPPPAPLCHSDDYVHISLPQATVTPPRKEERMDSARPCLHRQHHLLNDRGSEEPPGSKGSVTLSDLPGFLGDLASEEDSIEKDKEEAAISRELSEITTAEAEPVVPRGGFDSPFYRDSLPGSQRKTHSAASSSQGASVNPEPLHSSLDKLGPDTPKQAFTPIDLPCGSADESPAGDRECQTSLETSIFTPSPCKIPPPTRVGFGSGQPPPYDHLFEVALPKTAHHFVIRKTEELLKKAKGNTEEDGVPSTSPMEVLDRLIQQGADAHSKELNKLPLPSKSVDWTHFGGSPPSDEIRTLRDQLLLLHNQLLYERFKRQQHALRNRRLLRKVIKAAALEEHNAAMKDQLKLQEKDIQMWKVSLQKEQARYNQLQEQRDTMVTKLHSQIRQLQHDREEFYNQSQELQTKLEDCRNMIAELRIELKKANNKVCHTELLLSQVSQKLSNSESVQQQMEFLNRQLLVLGEVNELYLEQLQNKHSDTTKEVEMMKAAYRKELEKNRSHVLQQTQRLDTSQKRILELESHLAKKDHLLLEQKKYLEDVKLQARGQLQAAESRYEAQKRITQVFELEILDLYGRLEKDGLLKKLEEEKAEAAEAAEERLDCCNDGCSDSMVGHNEEASGHNGETKTPRPSSARGSSGSRGGGGSSSSSSELSTPEKPPHQRAGPFSSRWETTMGEASASIPTTVGSLPSSKSFLGMKARELFRNKSESQCDEDGMTSSLSESLKTELGKDLGVEAKIPLNLDGPHPSPPTPDSVGQLHIMDYNETHHEHS
For B2, the binding entry in assay [6] and in assay [7] was “binds” throughout.
